The supplement of paper PMC10723795
Where a name gives a salt, the structure may show the parent alone. Some of the results follow.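 The calls were made as follows: active = more than 2 SD below the DMSO mean: under 0.85 at 10 µM or 0.885 at 1 µM; inactive = the rest.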 Single values are uncertain, as repeats are few or missing. Where a SMILES comes first, the peptide text is derived from it. Bridges are numbered along the chain shown (N, C = ends). [ ]: non-standard residue; d: D form. Mpa = O=C(O)CCS

System: RPE1
Experiment: nucleolar normality score relative to DMSO (fraction of DMSO control); RPE1 is a non-cancer human cell line; higher = more normal nucleoli (less nucleolar stress)
Settings: 24 h
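Also: fixed cells immunolabelled for nucleolin and UBF, 40 image fields per well in 384-well plates, per-cell score = nucleolin nucleolar/nucleoplasm intensity ratio divided by the matching UBF ratio.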

SMILES	nucleolar normality score (1 µM)	nucleolar normality score (10 µM)
Fc1ccc(Cl)cc1-c1nc(Nc2ccncc2)c2nccnc2n1	inactive: 0.936	inactive: 1.05
CO[C@H]1C[C@@H]2CC[C@@H](C)[C@@](O)(O2)C(=O)C(=O)N2CCCC[C@H]2C(=O)O[C@H]([C@H](C)C[C@@H]2CC[C@@H](OCCO)[C@H](OC)C2)CC(=O)[C@H](C)/C=C(\C)[C@@H](O)[C@@H](OC)C(=O)[C@H](C)C[C@H](C)/C=C/C=C/C=C/1C [Everolimus (RAD001)]	active: 0.878	inactive: 0.877
COc1cc2c(cc1OCCCN1CCCC1)N=C(N)C21CCC1	inactive: 0.953	inactive: 1.05
CN1c2ccccc2C(=O)Nc2cnc(Nc3ccc(N4CCC(O)CC4)cc3)nc21	inactive: 0.933	inactive: 1.05
O=C(O)CCCCC(CCSCc1ccccc1)SCc1ccccc1 (stereo not drawn)	inactive: 0.999	inactive: 0.895
CC1(C)CC[C@]2(C(=O)O)CC[C@]3(C)C(=CC[C@@H]4[C@@]5(C)CC[C@H](O)C(C)(C)[C@@H]5CC[C@]43C)[C@@H]2C1 [Oleanolic Acid]	inactive: 1.03	inactive: 0.887
CC(C)(C)c1nc(-c2cccc(NS(=O)(=O)c3c(F)cccc3F)c2F)c(-c2ccnc(N)n2)s1	active: 0.683	active: 0.601
CC(C)(C)c1nc(-c2cccc(NS(=O)(=O)c3c(F)cccc3F)c2F)c(-c2ccnc(N)n2)s1 [Dabrafenib Mesylate]	inactive: 1.02	inactive: 1.08
Cc1cc(Nc2cc(N)ncn2)c(=O)n2c1C(=O)NC21CCCCC1	inactive: 0.958	inactive: 1.02
O=C(O)C1=CO[C@@H](O[C@@H]2O[C@H](CO)[C@@H](O)[C@H](O)[C@H]2O)[C@@H]2C(CO)=CC[C@H]12 [Geniposidic acid]	inactive: 1.06	inactive: 0.864
Cc1ccc(Nc2ncc3c(n2)N(C)C(=O)N(c2cc(NC(=O)c4cccc(C(F)(F)F)c4)ccc2C)C3)cn1	active: 0.618	active: 0.589
COc1c(C)c2c(c(O)c1C/C=C(\C)CCC(=O)O)C(=O)OC2 [Mycophenolic acid]	inactive: 1.07	inactive: 0.928
O.O=C([O-])c1ncccc1O.O=C([O-])c1ncccc1[O-].[H+].[O]=[V][OH] [VO-Ohpic trihydrate]	inactive: 0.989	inactive: 0.949
O=C(c1ccc(/C=C/c2n[nH]c3ccccc23)cc1)N1CCNCC1	inactive: 0.974	inactive: 1.07
C/C(=C\C(=O)Nc1ccccc1C(=O)O)c1ccc2ccccc2c1	inactive: 0.982	inactive: 1.02
Cc1cc(Cl)ccc1OCCCC(=O)NO [Droxinostat]	inactive: 1.02	inactive: 1.06
NS(=O)(=O)OC[C@@H]1C[C@@H](n2ccc3c(N[C@H]4CCc5ccccc54)ncnc32)C[C@@H]1O [Pevonedistat (MLN4924)]	inactive: 1.03	inactive: 1.05
C[C@H](CC[C@@]1(O)O[C@H]2C[C@H]3[C@@H]4CC=C5C[C@@H](O[C@@H]6O[C@H](CO)[C@@H](O[C@@H]7O[C@@H](C)[C@H](O)[C@@H](O)[C@H]7O)[C@H](O)[C@H]6O[C@@H]6O[C@@H](C)[C@H](O)[C@@H](O)[C@H]6O)CC[C@]5(C)[C@H]4CC[C@]3(C)[C@H]2[C@@H]1C)CO[C@@H]1O[C@H](CO)[C@@H](O)[C@H](O)[C@H]1O [Protodioscin]	inactive: 1.07	inactive: 0.941
CN(C)CCOc1ccc(-c2nc(-c3ccncc3)c(-c3ccc4c(c3)CC/C4=N\O)[nH]2)cc1	inactive: 1.05	inactive: 0.853
O=C1Cc2c([nH]c3ccc(Br)cc23)-c2ccccc2N1 [Kenpaullone]	inactive: 0.973	inactive: 1.02
Cc1cc2c(C(N)=O)cccc2n1-c1nc2c(c(NCc3ccccc3)n1)COCC2	inactive: 0.998	inactive: 0.935
COc1ccc2c(c1)c(CC(=O)N1CCOCC1)c(C)n2C(=O)c1ccc(Cl)cc1	inactive: 1.04	active: 0.838
Cc1cc2c3c([n+](C)c4ccc(F)cc4c3c1)-c1cc(F)ccc1N2C [RHPS 4 methosulfate]	inactive: 1.01	inactive: 0.987
CCC(C)C1NC(=O)C(Cc2ccc(O)cc2)NC(=O)C(CC(C)C)NC(=O)C2CCCN2C(=O)CCSSCC(C(=O)NC(CCCN=C(N)N)C(=O)NC(CCCN=C(N)N)C(N)=O)NC(=O)C(C(C)C)NC(=O)C2CCCN2C(=O)C(CC(=O)O)NC(=O)C(Cc2ccc(O)cc2)NC(=O)C(CO)NC1=O (stereo not drawn) ([Mpa]PLYISYDPVCRR-NH2; disulfide 1-11; configuration not given here)	active: 0.678	inactive: 1.08
N#Cc1ccc(COC[C@H]2O[C@@H](n3c(NCc4ccc(Cl)c(Cl)c4)nc4c(N)ncnc43)[C@H](O)[C@@H]2O)cc1	inactive: 0.953	inactive: 1
CS(=O)(=O)c1ccc(-c2cnc(NCc3ccco3)n3cnnc23)cc1	inactive: 0.96	inactive: 0.962
CCn1nc(C2CCN(C(=O)CCO)CC2)nc1-c1cnc(N)c(-c2nnc(C(C)(C)C)o2)n1	inactive: 0.967	inactive: 1.08

SMILES	nucleolar normality score (1 µM)	nucleolar normality score (10 µM)
COc1cccc2cc(-c3nc([C@H]4CC[C@H](C(=O)O)CC4)n4ncnc(N)c34)[nH]c12	inactive: 0.99	active: 0.659
Cc1c(C)c2c(c(C)c1O)CCC(C)(C(=O)O)O2 (stereo not drawn) [Trolox]	inactive: 1.05	inactive: 1.04
COc1cc(C2Oc3cc([C@H]4Oc5cc(O)cc(O)c5C(=O)[C@@H]4O)ccc3OC2CO)ccc1O (stereo partly drawn) [Silibinin]	active: 0.832	active: 0.748
CN1CCN(c2ccc(Nc3ncc4cc(C#N)c(=O)n(C5CCCC5)c4n3)cc2)CC1	inactive: 0.941	inactive: 0.924
CC#CC(=O)N1CCC(n2c(=O)n(-c3ccc(Oc4ccccc4)cc3)c3c(N)ncnc32)C1 (stereo not drawn) [ONO-4059 (GS-4059) hydrochloride]	inactive: 0.981	inactive: 1
O=C(O)Cc1cccc(OCCCN(Cc2cccc(C(F)(F)F)c2Cl)CC(c2ccccc2)c2ccccc2)c1	inactive: 1.03	inactive: 1.09
C[C@]1(c2nc3c(C(N)=O)cccc3[nH]2)CCCN1 [Veliparib (ABT-888)]	inactive: 0.927	inactive: 1.02
OC(CC1c2ccccc2-c2cncn21)C1CCCCC1 (stereo not drawn)	inactive: 0.987	inactive: 1.04
O=C1C(c2[nH]c3ccccc3c2O)=Nc2ccccc21 [Indigo]	inactive: 0.989	inactive: 0.91
COC(=O)Nc1ccc(-c2nc(N3CCOCC3)c3cnn(C4CCN(C(=O)OC)CC4)c3n2)cc1	inactive: 1.11	inactive: 1.11
NCCCC(O)(P(=O)(O)O)P(=O)(O)O [Alendronate sodium trihydrate]	inactive: 1.11	inactive: 1.07
N.N.O=C([O-])C[O-].[Pt+2] [Nedaplatin]	inactive: 0.988	inactive: 1.05
C[C@H](CC(=O)C[C@@H](C)[C@H]1C[C@H](O)[C@@]2(C)C3=C(C(=O)C[C@]12C)[C@@]1(C)CCC(=O)C(C)(C)[C@@H]1C[C@@H]3O)C(=O)O [Ganoderic acid A]	inactive: 1.06	inactive: 1.09
Cc1cnc(Nc2ccc(F)cc2Cl)nc1-c1c[nH]c(C(=O)NC(CO)c2cccc(Cl)c2)c1 (stereo not drawn)	inactive: 1.01	inactive: 1
CC(C)n1c(/C=C/C(O)CC(O)CC(=O)O)c(-c2ccc(F)cc2)c2ccccc21 (stereo not drawn) [Fluvastatin Sodium]	inactive: 0.922	inactive: 1.02
CC(C)N(CCCNC(=O)Nc1ccc(C(C)(C)C)cc1)C[C@H]1O[C@@H](n2cc(Br)c3c(N)ncnc32)[C@H](O)[C@@H]1O	inactive: 1.08	inactive: 1.07
COc1c/c(=C2\C=c3ccccc3=N2)[nH]/c1=C\c1[nH]c(C)cc1C [Obatoclax Mesylate (GX15-070)]	active: 0.806	active: 0.581
COc1cc(N2CCC(N)CC2)ccc1Nc1ncc(Cl)c(-c2c[nH]c3ccccc23)n1	active: 0.68	active: 0.619
Nc1[nH]nc2nnc(-c3c(-c4ccccc4)nn4ccccc34)cc12	inactive: 0.95	inactive: 1.03
NC(=O)/C(=C/n1cnc(-c2cc(C(F)(F)F)cc(C(F)(F)F)c2)n1)c1cncnc1 [Eltanexor (KPT-8602)]	inactive: 1.1	inactive: 1.03
Nc1nonc1C(=Nc1ccc(F)c(Cl)c1)NO	inactive: 1	inactive: 1.03
CCN(CC)CCOc1ccc2c(c1)C(=O)c1cc(OCCN(CC)CC)ccc1-2 [Tilorone dihydrochloride]	inactive: 1	active: 0.826
O=C(O)c1ccc2c(c1)nc(Nc1cccc(Cl)c1)c1ccncc12 [Silmitasertib (CX-4945)]	inactive: 1	inactive: 1.04
O=C1NCCc2[nH]c(-c3ccncc3)cc21	inactive: 0.936	active: 0.657
COc1ccc(S(=O)(=O)Nc2cccnc2Nc2ccc(O)cc2)cc1	inactive: 1.04	inactive: 1.09
O=C(/C=C/c1ccc(O)c(O)c1)c1ccc(O)cc1O [Butein]	inactive: 1.08	inactive: 1.04
O=C(CCCCCCC(=O)Nc1ccccc1)NO [Vorinostat (SAHA, MK0683)]	inactive: 0.962	inactive: 1.05
